Test results as given in PubChem BioAssay AID894 (National Center for Advancing Translational Sciences (NCATS), 2007).
“And” between values parts separate entries of the source, which are not always exact repeats. Identical values can stand only once. Out of some 150,000 compounds screened, about 6,500 (4.3%) were called active. The inconclusive results got no clear call from the source; some entries with a clear call stand among them for comparison. Calls come from the whole dose curve; as a rule, active = well fitted inhibition curve with a large enough effect (not every such curve was filed as active); inconclusive = small, poorly fitted or top-dose-only effect, or another doubt; inactive = no such curve, though single readings can be large or run the other way. A potency beside an inconclusive call is a rough fit, not a confirmed value.

biological target: 15-hydroxyprostaglandin dehydrogenase [NAD(+)] (Homo sapiens) (UniProt P15428); experiment: qHTS Assay for Inhibitors of HPGD (15-Hydroxyprostaglandin Dehydrogenase); conditions: purified HPGD, NADH fluorescence kinetic, PGE2 substrate; activity change, negative = inhibition: active compounds read low
Chain of UniProt P15428 (P15428 whole entry, looked up): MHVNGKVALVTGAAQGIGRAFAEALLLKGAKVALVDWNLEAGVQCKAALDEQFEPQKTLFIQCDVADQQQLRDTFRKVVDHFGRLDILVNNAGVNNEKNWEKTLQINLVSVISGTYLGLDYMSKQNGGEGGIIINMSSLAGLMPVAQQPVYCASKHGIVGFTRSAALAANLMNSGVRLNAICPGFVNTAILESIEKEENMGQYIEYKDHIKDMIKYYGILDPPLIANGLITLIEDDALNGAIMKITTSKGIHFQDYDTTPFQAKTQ
How it was run: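 20 nM HPGD preincubated 15 min at room temperature with compound in 50 mM Tris-HCl pH 8, 0.01% Tween 20. Started with 1 mM NAD+ and 30 uM prostaglandin E2; NADH fluorescence (360/450 nm) read 5 times over 30-s intervals, last minus first.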
% is set by controls: 0 for no effect and ±100 for the full control effect; potency is the fitted concentration of half-maximal effect; tags give direction and shape of the fitted curve.

Potency, active:
CCC(=O)Nc1sc(C(=O)N2CCCCC2)c(C)c1C#N 4.47 µM
O=C1C=CC(=O)N1N(c1ccccc1)c1ccccc1 1.41 µM
COc1cccc(-c2csc(N3CCN(Cc4ccccc4)CC3)n2)c1 25.1 µM
CCN(CC)c1ccc(/C=N/Nc2cccc(C)c2)c(O)c1 22.4 µM
CC(C)C1S/C(=N/N=C/c2cccs2)NC1=O (stereo unspecified) 25.1 µM
O=C(/C=C/c1ccncc1)c1ccc(NC(=O)c2ccccc2F)cc1 25.1 µM
CCS(=O)(=O)c1ccc2oc(Nc3ccc(C(C)C)cc3)nc2c1 3.98 µM
S=C(c1ccc(-c2cccc(Cl)c2)o1)N1CCOCC1 22.4 µM

Potency, inconclusive:
C=CCNc1nnc(SCC(=O)N2CCCCC2)c2ccccc12 3.55 µM [inhibitor, full curve]
CCn1c(=N)c(C(=O)NCCCOC)cc2c(=O)n3cccc(C)c3nc21 20 µM [inhibitor, partial curve]
CS(=O)(=O)c1nc(-c2ccccc2)cc(-c2ccccc2)c1C#N 28.2 µM [inhibitor, partial curve]
Cc1ccc(C(=O)NCCn2c(N)c(C#N)c3nc4ccccc4nc32)cc1 22.4 µM [inhibitor, partial curve]
O=C(CSc1nnc(CCCN2C(=O)c3cccc4cccc(c34)C2=O)n1-c1ccccc1)N1CCN(CCO)CC1 28.2 µM [inhibitor, partial curve]
O=S(=O)(Nc1cccc(-c2cn3cccnc3n2)c1)c1ccc(-c2ccccc2)cc1 28.2 µM [inhibitor, partial curve]
Cc1sc(NC(=O)c2ccc(OCC(C)C)cc2)c(C(N)=O)c1-c1ccc(Cl)cc1Cl 31.6 µM [inhibitor, partial curve]
O=C(CCCCCCN1C(=O)c2ccccc2C1=O)N1CCC(c2ccccc2)C1 (stereo unspecified) 25.1 µM [inhibitor, single point]
CCn1c(CNc2nc(-c3ccccc3)cs2)nnc1SCC(=O)NCc1ccco1 25.1 µM [inhibitor, single point]
COc1ccc(-c2nc(CS(=O)CC(=O)NCc3cccnc3)c(C)o2)cc1OC (stereo unspecified) 20 µM [inhibitor, partial curve]
O=c1c(O)c(-c2ccc(O)cc2)oc2cc(O)ccc12 35.5 µM [inhibitor, partial curve]
O=C(O)CCc1nn2cc(-c3ccccc3)nc2[nH]c1=O 28.2 µM [inhibitor, partial curve]
CCN(CC)C(=O)c1cc(-c2ccccc2OC)on1 25.1 µM [inhibitor, partial curve]
O=c1oc2ccc3ccccc3c2c2c1SC(C(F)(F)F)C2 (stereo unspecified) 28.2 µM [inhibitor, partial curve]
CCOc1c(OC)ccc2c3c(c(=O)oc12)CCCC3 8.91 µM [inhibitor, partial curve]
C=CCNc1ncnc2c1[nH]c1ccc(Cl)cc12 28.2 µM [inhibitor, partial curve]
CC(OC(=O)/C=C/c1ccco1)C(=O)Nc1cccc([N+](=O)[O-])c1 (stereo unspecified) 25.1 µM [inhibitor, partial curve]
COc1ccc(-c2coc3cc4oc(=O)c5ccccc5c4cc23)cc1F 20 µM [inhibitor, single point]
COC(=O)c1ccccc1NC(=O)N1CCN(S(=O)(=O)c2ccc(Cl)cc2)CC1 17.8 µM [inhibitor, partial curve]
C=CCn1c(=NC(=O)c2ccc(S(=O)(=O)N3CCCC3)cc2)sc2cc(NC(C)=O)ccc21 31.6 µM [inhibitor, partial curve]
COC(=O)c1[nH]c2ccc(C)cc2c1NC(=O)CN1CCCC(C)(C)C1 28.2 µM [inhibitor, partial curve]
CCCCN(Cc1ccco1)C(=O)c1cc2c(=O)[nH]c3ccc(C)cc3c2s1 31.6 µM [inhibitor, partial curve]
Cc1ccc(OCc2nnc(SC3CCc4ccccc4C3=O)n2C)cc1 (stereo unspecified) 35.5 µM [inhibitor, single point]
CC1(C)Cc2c(c(-c3ccco3)[nH]c(=O)c2C#N)CO1 28.2 µM [inhibitor, single point]
CCCSc1ccc2nc(-c3ccccc3)cn2c1 25.1 µM [inhibitor, single point]
O=C(CCS(=O)(=O)c1cccs1)Nc1ccc(C(=O)NCc2ccc(F)cc2)cc1 28.2 µM [inhibitor, partial curve]
CCc1c(C)nc2c(OC)cccc2c1SCCC(=O)O 31.6 µM [inhibitor, partial curve]
Cc1ccc(C2C(C#N)=C(N)SC(N)=C2C#N)c(C)c1 17.8 µM [inhibitor, partial curve]
Brc1ccc(C2Nc3cccc4cccc(c34)N2)o1 22.4 µM [inhibitor, partial curve]
O=C(CN1CCCC1)N1CCCc2c1c(=O)oc1ccc(OCc3ccccc3)cc21 31.6 µM [inhibitor, partial curve]
CC(C)C(=O)N(Cc1cc(=O)[nH]c2ccccc12)c1ccccc1 25.1 µM [inhibitor, partial curve]
CC(=O)Nc1nc2ccccc2n1CCOc1ccccc1Cl 39.8 µM [inhibitor, single point]
CCn1c2ccccc2c2cc(C3C(C#N)=C(C)NC(C)=C3C#N)ccc21 31.6 µM [inhibitor, partial curve]
CN1C(=O)c2oc3ccc(Br)cc3c(=O)c2C1c1ccncc1 (stereo unspecified) 39.8 µM [inhibitor, single point]
CC(=O)OC(C)(C)C1Cc2cc3ccc(=O)oc3cc2O1 (stereo unspecified) 11.2 µM [inhibitor, partial curve]
Cc1cccc(Cc2cnc(N3C(=N)SC(c4ccccc4)C3=O)s2)c1 (stereo unspecified) 1.26 µM [inhibitor, full curve]
O=C(O)c1ccccc1NCN1C(=O)C2CC=C(Cl)CC2C1=O (stereo unspecified) 25.1 µM [inhibitor, partial curve]
O=C(O)c1ccccc1C(=O)Nc1ccc(-c2csc(-c3ccccc3)n2)cc1 31.6 µM [inhibitor, partial curve]
COc1ccc(O)c(/C=N/NC(=S)Nc2cccc(S(=O)(=O)N(C)C)c2)c1 20 µM [inhibitor, partial curve]
O=C(Nc1cccc(-c2nnc(-c3ccccc3)o2)c1)C1CCCCC1 28.2 µM [inhibitor, partial curve]
COc1ccc(/C=C/c2nc(-c3ccccc3O)n(-c3ccccc3)n2)cc1 31.6 µM [inhibitor, partial curve]

Activity change, negative = inhibition, inactive:
COC(=O)c1c(S(=O)(=O)NCc2ccccc2)sc(C(=O)O)c1C -6.61%
CCN(C(=O)Cc1cccs1)c1nnc(-c2cccnc2)s1 -12.9%
NC(=O)c1ccc(-n2nnnc2Oc2ccccc2)cc1 -2.16%
CCOC(=O)c1cc(C(=O)Nc2ccc(C)c(F)c2)nn1C -2.1%
O=C(O)CC/C(=N/NC(=O)c1cn(-c2ccccc2)nc1-c1ccccc1)C(=O)O -17.9%
CC(=O)NNc1ccc(C(F)(F)F)cc1[N+](=O)[O-] -5.4%
O=C(O)C1CCCNC1 (stereo unspecified) 2.79% and -14.4% and 3.73%
Cc1cc(OCC(=O)Nc2ccccc2F)nc(C(C)C)n1 0.929%
CN1CCN(c2nc3c(c(=O)n(C)c(=O)n3C)n2Cc2cccc3ccccc23)CC1 -8.34%
Cc1ccc(C2OCC3(CO)COC(c4ccc(C)cc4)N23)cc1 (stereo unspecified) -10.6%
COc1ccc(N(CC(=O)NCc2cccs2)S(=O)(=O)c2cccnc2)cc1 -8.44%
O=C(O)c1ccc(NS(=O)(=O)c2ccc(Cl)cc2)cc1 -11.8%
CCn1c(CSc2nnc(-c3cccnc3)n2-c2ccccc2C)nc2cc(C(=O)O)ccc21 -17.5%
O=C(O)c1cccc(NC(=O)c2ccc3c(c2)C(=O)N(CC2CCCO2)C3=O)c1 (stereo unspecified) -6.01%
O=C1Nc2ccccc2/C1=C\c1cccn1-c1ccc(OC(F)(F)F)cc1 -2.35%
O=S1(=O)CCC(NC(=S)N2CCCCC2)C1 (stereo unspecified) 2.95%
C=CCn1c(N2CCCC2)nc2c1c(=O)[nH]c(=O)n2C -11.9%
CC1CC[C@@]2(OC1)OC1CC3C4CC[C@@H]5CC(O)CC[C@@]5(C)C4CC[C@]3(C)C1C2C (stereo partly specified) -7.2%
COc1cc2c3c(c1)C1(C(=O)N3C(C)(C)C=C2C)C(C#N)=C(N)Oc2cc(O)ccc21 (stereo unspecified) -16.9%
CC(C)Oc1ccc(C(=O)NC(=S)Nc2ccc(CN3CCOCC3)cc2)cc1 -11.2%
CC(=O)Nc1ccc(S(=O)(=O)NCc2ccc(C(=O)NCCN3CCCCCC3)cc2)cc1 -0.0187%
Cc1ccc(C(=O)NCCn2cc(SCC(=O)Nc3cc(C)on3)c3ccccc32)cc1 -6.24%
